# Some of the results follow.
# Molecular target: T1, OsWOX13 (Oryza sativa, UniProt Q5QMM3 1-267)
# T1 sequence: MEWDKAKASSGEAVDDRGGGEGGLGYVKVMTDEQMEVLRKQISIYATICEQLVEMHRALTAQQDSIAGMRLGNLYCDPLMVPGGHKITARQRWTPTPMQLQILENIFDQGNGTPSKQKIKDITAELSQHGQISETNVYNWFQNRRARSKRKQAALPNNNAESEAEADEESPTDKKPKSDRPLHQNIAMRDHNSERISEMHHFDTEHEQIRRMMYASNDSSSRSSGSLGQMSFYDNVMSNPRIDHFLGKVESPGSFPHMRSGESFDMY
# Assay: protein-binding microarray (RPBM); PBS, 2% BSA, 51.3 ng/ul salmon testes DNA, 50 uM zinc acetate, 200 nM TF, 25 C, 1 h; high values mean tight binding
# Settings: protein: recombinant; tags: N-terminal polyhistidine and DsRed monomer fusion (pET32a); label: CyDye5-dUTP incorporated in the synthesized complementary strand; 3' TTTTT single-stranded linker to array surface; dsDNA, one strand shown
# How it was run: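 Transcription factors were each fused at the N-terminus to a polyhistidine tag plus DsRed and expressed in E. coli BL21-CodonPlus before Ni–NTA purification. Binding to a double-stranded custom Agilent array was carried out with 200 nM protein at 25 °C for 1 h in PBS, 2% BSA, salmon testes DNA and 50 µM zinc acetate. The binding signal is per-feature fluorescence intensity, in arbitrary units, on an Axon 4000B scanner.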
row,Sequence,binding signal
1,GACAACTAATTAATGAATAAACTAATGTAAATCCACTTGTCGGAGTCACCTAGTGCAG,27300 fluorescence intensity (a.u.)
2,GTGCAAATTTATTCCGTATAATTTGGAAGGATATATCTTGCGGAGTCACCTAGTGCAG,15900 fluorescence intensity (a.u.)
3,TTATAATTTAATCCGGCTCTAAATTTCAGCCCCGCCGTTGCGGAGTCACCTAGTGCAG,14100 fluorescence intensity (a.u.)
4,ATGTATAAATTGAAATACCACTGATGCATTTTACTCTGTTCGGAGTCACCTAGTGCAG,23500 fluorescence intensity (a.u.)
5,AATGATCTAAACTATTTAATCATATAGTTGTGCCATCATTCGGAGTCACCTAGTGCAG,8810 fluorescence intensity (a.u.)
6,TTAAATGTAATTCTTTATATTTTAACTTTATGCTAACCGTCGGAGTCACCTAGTGCAG,4880 fluorescence intensity (a.u.)
7,TCGCCTCTTAAATTAATCAAAACAGTCGACTTCTCAACCTCGGAGTCACCTAGTGCAG,3370 fluorescence intensity (a.u.)
8,TATAATATAGTAATTACCGTATTTCTAAATATGTCGATATCGGAGTCACCTAGTGCAG,9170 fluorescence intensity (a.u.)
9,ATTAATCACATCATCAATTTCCAAACTCATTCTGTCCGTTCGGAGTCACCTAGTGCAG,9040 fluorescence intensity (a.u.)
10,TAAATAGAATCTGAATGATAATTAAGAGGAGGGACGACGACGGAGTCACCTAGTGCAG,5670 fluorescence intensity (a.u.)
11,ACAATAATGGAATTACAGCCGCTGGCTTAGCTAGTTGCTCCGGAGTCACCTAGTGCAG,7420 fluorescence intensity (a.u.)
12,ACGTTTTAAATAGGTTAAATTTGATTATACTTCCTCCGTCCGGAGTCACCTAGTGCAG,5900 fluorescence intensity (a.u.)
13,ATTTCTTTCCTTTGACTGTCAATTTGTAAAAGTTTATATACGGAGTCACCTAGTGCAG,11800 fluorescence intensity (a.u.)
14,CTGCTCTTTTCATTTACAAATCATGTCCTCATGTTGCAGTCGGAGTCACCTAGTGCAG,3290 fluorescence intensity (a.u.)
15,ACTGCTAATTAATTGCACATGCATCATGGAAAACATGAAGCGGAGTCACCTAGTGCAG,35800 fluorescence intensity (a.u.)
16,GTAGTGATTGTTAGTAAGCATTCGATATATTACGCCCAAGCGGAGTCACCTAGTGCAG,17200 fluorescence intensity (a.u.)
17,GGCAAATTTGTAACTCTTCGGACATGAATATAAATGTGCACGGAGTCACCTAGTGCAG,11800 fluorescence intensity (a.u.)
18,GCCAATTACGAAGTTTGTTACATCGACATGAAGGATGTCGCGGAGTCACCTAGTGCAG,3470 fluorescence intensity (a.u.)
19,TTTAAATTTAATTTATAAGCATATGTATAAGCGGAACAACCGGAGTCACCTAGTGCAG,32000 fluorescence intensity (a.u.)
20,CGACATGTCATTAATTACTAAGACATTCTTGGCAACCAAGCGGAGTCACCTAGTGCAG,6050 fluorescence intensity (a.u.)
21,ATGCTGCTAGATTGAGAGAGCAAACAAAATAATAACCCCACGGAGTCACCTAGTGCAG,8900 fluorescence intensity (a.u.)

row,Sequence,binding signal
1,ACTCAATTAATTATATGCCAACAACTTTCTTGTTTTATGTCGGAGTCACCTAGTGCAG,27400 fluorescence intensity (a.u.)
2,ACAACTAATTTAATCGCTAGAGCGCATTTTACTCCTAGATCGGAGTCACCTAGTGCAG,15500 fluorescence intensity (a.u.)
3,CATGCACGCAATCGATTGATTAAACGAGAATTAGCAACGCCGGAGTCACCTAGTGCAG,9420 fluorescence intensity (a.u.)
4,ACGATCAAATTTAGACATGGAAACTCGTGACTGTGCTTATCGGAGTCACCTAGTGCAG,6550 fluorescence intensity (a.u.)
5,GCTAATAGCGCAATTTAGCCGGCAATAGCCGCTAAACTGGCGGAGTCACCTAGTGCAG,3690 fluorescence intensity (a.u.)
6,CTGATTGATTAATTTTGTACCGAATGATCAATCATTCGATCGGAGTCACCTAGTGCAG,47700 fluorescence intensity (a.u.)
7,AAAACGACGCTATATAATTGACAATCTGAAGGCAACCTCTCGGAGTCACCTAGTGCAG,13000 fluorescence intensity (a.u.)
8,GAAAAGAAAAGATAATTGAGCCCATTTCCAATAACACTATCGGAGTCACCTAGTGCAG,3650 fluorescence intensity (a.u.)
9,CGAAAGACAATTGGATTAATTGGGGATATATAGTACACTACGGAGTCACCTAGTGCAG,17800 fluorescence intensity (a.u.)
10,GCAAATTAGGTAGTTCATGCAAATGCTTCCATGCCTTCGTCGGAGTCACCTAGTGCAG,3790 fluorescence intensity (a.u.)
11,TTTTGTGATTTAGGCGACCAGAAATCAGTTAATACTCGGTCGGAGTCACCTAGTGCAG,7520 fluorescence intensity (a.u.)
12,CGTGCTTAATTTAGTTCCGTGGAATTGACCACGAAATCACCGGAGTCACCTAGTGCAG,8120 fluorescence intensity (a.u.)
13,GTGACAGGCTAGTTTATAATAGATATTTTGATATTAACTCCGGAGTCACCTAGTGCAG,3540 fluorescence intensity (a.u.)
14,AATTAATTAATTCATTAACTAGATGCATGATGCTAGCATACGGAGTCACCTAGTGCAG,40200 fluorescence intensity (a.u.)
15,ATCAAATCATATGTTAGATTGATCCTTCAATTAGTTAATTCGGAGTCACCTAGTGCAG,24400 fluorescence intensity (a.u.)
16,TTTTAACTGTGATTCTTTAAACTCAGTTAGAAGTTACTGGCGGAGTCACCTAGTGCAG,10200 fluorescence intensity (a.u.)
17,CTTTTGATTTGGAGCAGTATAAACAGCCGTAGAGGTGGCACGGAGTCACCTAGTGCAG,17900 fluorescence intensity (a.u.)
18,CAGTGTGATTTAAGAATTTTCAACTGTAAAAGAATAGGAGCGGAGTCACCTAGTGCAG,10000 fluorescence intensity (a.u.)
19,ACTGATTGACGTTTCTCATAACTAAAATATAGGTATTGTGCGGAGTCACCTAGTGCAG,60900 fluorescence intensity (a.u.)
20,CCTTAATAGAGGATTTCCAAAATATGTGAGTGATTTGTTGCGGAGTCACCTAGTGCAG,21300 fluorescence intensity (a.u.)
21,TGCTCAATCACACACACACACGCGTGTAATATTAAGATTTCGGAGTCACCTAGTGCAG,10500 fluorescence intensity (a.u.)

# — publication PMC7819943, “Rice protein-binding microarrays: a tool to detect cis-acting elements near promoter regions in rice”
